Experimental data taken from a collection of fitness landscapes (doi:10.1126/science.1257360).
The other results are listed elsewhere or left out.

B1: PhoQ; a variant is named by its letters at X, in order, P23837 (parent)
chain: MKKLLRLFFPLSLRVRFLLATAAVVLVLSLAYGMVALIGYSVSFDKTTFRLLRGESNLFYTLAKWENNKLHVELPENIDKQSPTMTLIYDENGQLLWAQRDVPWLMKMIQPDWLKSNGFHEIEADVNDTSLLLSGDHSIQQQLQEVREDDDDAEMTHSVAVNVYPATSRMPKLTIVVVDTIPVELKSSYMVWSWFIYVLSANLLLVIPLLWVAAWWSLRPIEALAKEVRELEEHNRELLNPATTRELTSLVRNLNRLLKSERERYDKYRTTLTDLTHSLKTPLXXLQXXLRSLRSEKMSVSDAEPVMLEQISRISQQIGYYLHRASMRGGTLLSRELHPVAPLLDNLTSALNKVYQRKGVNISLDISPEISFVGEQNDFVEVMGNVLDNACKYCLEFVEISARQTDEHLYIVVEDDGPGIPLSKREVIFDRGQRVDTLRPGQGVGLAVAREITEQYEGKIVAGESMLGGARMEVIFGRQHSAPKDE

Variants of: B1
Test: enrichment ratio after two sorts for PhoP signalling (ratio (wild type AVST 3.29)); higher = more functional
Details: with PhoP (E. coli)

Variant	enrichment ratio
PFAG	≤ 0.25
EAIW	≤ 0.25
WSRP	≤ 0.25
IDSW	≤ 0.25
YSQR	≤ 0.25
DKVG	≤ 0.25
PCMF	≤ 0.25
VECS	3.02
PPEF	≤ 0.25
PVVS	≤ 0.25
WTAA	≤ 0.25
NFES	≤ 0.25
PKCM	≤ 0.25
IHVE	≤ 0.25
SVEV	≤ 0.25
PGPW	≤ 0.25
SHVE	≤ 0.25
KLWW	≤ 0.25
RGCE	≤ 0.25
HQIP	≤ 0.25
SPAD	≤ 0.25
RDGI	≤ 0.25
EKVF	≤ 0.25
TMQC	8.16

Variant	enrichment ratio
FLDD	≤ 0.25
HHTD	≤ 0.25
PADV	≤ 0.25
QISL	1.56
SYSM	≤ 0.25
QQTK	≤ 0.25
YMVH	≤ 0.25
NLRK	≤ 0.25
FCWE	≤ 0.25
NPPP	≤ 0.25
WTKC	≤ 0.25
INAM	2.33
DWNN	≤ 0.25
DGRR	≤ 0.25
YRET	≤ 0.25
IAQE	≤ 0.25
QGRF	≤ 0.25
SNGA	5.84
IRFH	≤ 0.25
HFVK	≤ 0.25
FHKL	≤ 0.25
MMKY	≤ 0.25
YHIT	≤ 0.25
YNHM	≤ 0.25

Variant	enrichment ratio
HYCR	≤ 0.25
FWMS	≤ 0.25
RHER	≤ 0.25
SSAV	12.9
PPTI	≤ 0.25
DSIF	≤ 0.25
PVTF	≤ 0.25
WCTY	≤ 0.25
NDGK	≤ 0.25
NTFQ	≤ 0.25
VLKR	≤ 0.25
DRHL	≤ 0.25
YITY	0.713
KYPD	0.584
PLFR	≤ 0.25
FWDL	≤ 0.25
WCIC	≤ 0.25
YSWE	≤ 0.25
RSSR	≤ 0.25
SQFA	≤ 0.25
AVKF	≤ 0.25
FLFM	≤ 0.25
EYET	≤ 0.25
FNFK	≤ 0.25

Variant	enrichment ratio
TKFS	≤ 0.25
RRFH	≤ 0.25
TCPG	≤ 0.25
LSSL	≤ 0.25
RFQY	≤ 0.25
TFER	≤ 0.25
NVVH	≤ 0.25
PQPF	≤ 0.25
SDTC	1.23
RMDM	≤ 0.25
VWSD	≤ 0.25
GKNP	≤ 0.25
SDAS	0.554
WYFN	≤ 0.25
PLTN	≤ 0.25
REQG	≤ 0.25
HKMW	≤ 0.25
SEND	≤ 0.25
MQFI	0.491
WFME	≤ 0.25
VKSC	≤ 0.25
VCLE	≤ 0.25
RRFW	≤ 0.25
WKIT	≤ 0.25

Variant	enrichment ratio
TIYK	≤ 0.25
MPMY	≤ 0.25
EDWR	≤ 0.25
GSTV	9.64
SLTW	7.18
FDAP	≤ 0.25
PYRK	≤ 0.25
WTPF	≤ 0.25
GSND	≤ 0.25
LCNI	1.56
GTLW	3.11
WDNV	≤ 0.25
MRES	≤ 0.25
IQYF	≤ 0.25
SAMP	≤ 0.25
HLCD	≤ 0.25
GQIF	≤ 0.25
DPPH	≤ 0.25
FVCP	≤ 0.25
LWRK	≤ 0.25
PYMG	≤ 0.25
NGSN	≤ 0.25
GISC	11.8
HAGI	≤ 0.25

Variant	enrichment ratio
GRCK	≤ 0.25
MNVI	1.33
PTLC	≤ 0.25
LHEK	≤ 0.25
QSIH	≤ 0.25
SHET	≤ 0.25
AVFR	≤ 0.25
PVVM	≤ 0.25
TCIW	≤ 0.25
MQHL	≤ 0.25
DVYG	≤ 0.25
DPFR	≤ 0.25
FMRE	≤ 0.25
DSDT	≤ 0.25
DQQD	≤ 0.25
MCWA	≤ 0.25
ACQH	≤ 0.25
MYGG	≤ 0.25
LKQF	≤ 0.25
TKLT	15.3
KFYC	≤ 0.25
QTWW	≤ 0.25
SLAV	9.05
AFCQ	≤ 0.25

Variant	enrichment ratio
DTLC	≤ 0.25
YPCA	≤ 0.25
HNIN	≤ 0.25
GISM	18.4
GLYH	≤ 0.25
YHGY	≤ 0.25
MLEF	≤ 0.25
WMER	≤ 0.25
YISV	1.26
AMQH	≤ 0.25
NKGL	≤ 0.25
YAIT	≤ 0.25
WGFD	≤ 0.25
EAAW	≤ 0.25
RHVD	≤ 0.25
ANLS	12
DCWQ	≤ 0.25
GSMS	1.78
WQPS	≤ 0.25
WMVP	≤ 0.25
GILC	4.98
AEVF	14.3
FYYQ	≤ 0.25
GHGI	≤ 0.25

Variant	enrichment ratio
VDCF	≤ 0.25
MFDC	≤ 0.25
FLNR	≤ 0.25
KFQD	≤ 0.25
KINV	≤ 0.25
YNDW	≤ 0.25
QCLH	≤ 0.25
WAPG	≤ 0.25
SSWK	≤ 0.25
ISIP	≤ 0.25
YLIA	≤ 0.25
FIAG	≤ 0.25
SALG	15.9
FWFQ	≤ 0.25
NWHV	≤ 0.25
KSNC	≤ 0.25
GMKS	≤ 0.25
NGCL	≤ 0.25
EHSH	≤ 0.25
VGIN	≤ 0.25
GCST	1.96
YGRN	≤ 0.25
YHIS	≤ 0.25
WSCK	≤ 0.25

Variant	enrichment ratio
GKLS	≤ 0.25
DRSW	≤ 0.25
GTYI	≤ 0.25
GVSC	0.744
GRCS	≤ 0.25
FNDT	≤ 0.25
PSFG	≤ 0.25
MAHG	≤ 0.25
VILV	0.615
KAWG	≤ 0.25
PDVE	≤ 0.25
ELAA	≤ 0.25
TWSR	≤ 0.25
YEWV	≤ 0.25
RGGM	≤ 0.25
KFPD	≤ 0.25
ERLK	≤ 0.25
SLEH	≤ 0.25
QPSN	≤ 0.25
WTIF	≤ 0.25
ICRE	≤ 0.25
MCPW	≤ 0.25
WHCS	≤ 0.25
SHSF	0.587

Variant	enrichment ratio
KPID	≤ 0.25
PVYV	≤ 0.25
PYNH	≤ 0.25
AKTG	≤ 0.25
DEMP	≤ 0.25
RPHD	≤ 0.25
RHSM	≤ 0.25
LTGG	≤ 0.25
SKQA	≤ 0.25
EFFA	≤ 0.25
TILV	1.14
GTFV	≤ 0.25
QHVP	≤ 0.25
DKYP	≤ 0.25
VIQC	≤ 0.25
QIEF	≤ 0.25
DMMC	≤ 0.25
DQLM	≤ 0.25
VVGY	≤ 0.25
NNNK	≤ 0.25
AKKS	≤ 0.25
YWHA	≤ 0.25
EDEY	≤ 0.25
ELMI	≤ 0.25

Variant	enrichment ratio
AQFR	≤ 0.25
VYRT	≤ 0.25
FDVF	≤ 0.25
FTRL	≤ 0.25
IGCY	≤ 0.25
SPPA	≤ 0.25
YQWG	≤ 0.25
QLCD	≤ 0.25
FYWQ	≤ 0.25
STIH	5.19
NWCF	≤ 0.25
RPLW	≤ 0.25
QHSP	≤ 0.25
QSCS	≤ 0.25
TMAY	9.25
GNSQ	≤ 0.25
MKTN	≤ 0.25
LRPS	≤ 0.25
PQQA	≤ 0.25
AKDS	≤ 0.25
WMFY	≤ 0.25
NYKP	≤ 0.25
HEDN	≤ 0.25
ISFE	≤ 0.25

Variant	enrichment ratio
DVQD	≤ 0.25
QVNY	≤ 0.25
SHTQ	≤ 0.25
VVVD	≤ 0.25
RPAF	≤ 0.25
GIRE	≤ 0.25
WHAH	≤ 0.25
ENIK	≤ 0.25
SFMN	≤ 0.25
PGNS	≤ 0.25
FCTI	≤ 0.25
EESQ	≤ 0.25
PWGS	≤ 0.25
ITWN	≤ 0.25
YVSD	≤ 0.25
QCLN	≤ 0.25
QNIK	≤ 0.25
WVLR	≤ 0.25
GYIE	≤ 0.25
FVPM	≤ 0.25
VSAA	≤ 0.25
FQYR	≤ 0.25
WHRG	≤ 0.25
QINN	≤ 0.25

Variant	enrichment ratio
HCRG	≤ 0.25
TWGS	≤ 0.25
ETTP	≤ 0.25
MEAD	≤ 0.25
IHHM	≤ 0.25
VDQP	≤ 0.25
QMSF	1.73
WFQC	≤ 0.25
EALM	7.29
GSQC	≤ 0.25
GIFS	≤ 0.25
EVHR	0.632
QHYA	≤ 0.25
GSTR	≤ 0.25
AELS	10.7
KMIF	≤ 0.25
WFMQ	≤ 0.25
GLNP	≤ 0.25
